In PubChem BioAssay AID1508623 (National Center for Advancing Translational Sciences (NCATS), 2021):
About 450 (0.94%) of roughly 48,000 compounds were called active. Another 19% or so got no clear call; they are omitted. The call rests on the fitted dose curve; in most records, active means well fitted inhibition curve with a large enough effect; inconclusive means small, poorly fitted or top-dose-only effect; inactive means no such curve, though single readings can be large or run the other way. The list shows a part of the results.

Assay: Primary qHTS for Identification of Small Molecule Inhibitors of Huntingtin Promoter Activity; further: nearly all actives have a fitted effect of over 50% in size
Settings: HEK293 HTT promoter firefly luciferase reporter (activity 0% = vehicle and -100% = no light), 24 h; series mostly up to 57.5 µM; activity change, negative = inhibition: at the top concentration
How it was run: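 Firefly luciferase readout (Dual-Glo, 10 min RT) after 24 h, 37 °C compound exposure (final up to 57.5 uM) of HEK293 reporter cells cultured 24 h beforehand; PTC124 at 50 uM final as control inhibitor; activity scaled vehicle 0%, zero RLU -100%.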

Activity change, negative = inhibition, inactive:
CCOC(=O)CC(NC(=O)Cn1nnc(-c2ccccc2F)n1)c1ccccc1Cl (configuration not stated) -14.8%
CCc1ccc(C2C(C(=O)Nc3ccccc3C)=C(C)Nc3nc(SCc4cccc(OC)c4)nn32)cc1 (configuration not stated) -4.14%
CC(=O)c1ccc(NC(=O)CSc2nc(=O)n(Cc3ccncc3)c3c2CCC3)cc1 0%
CCS(=O)(=O)c1ncc(N(Cc2ccco2)Cc2ccccc2F)c(C(=O)Nc2cccc(Cl)c2)n1 -26.5%
O=C(Cn1c(=O)nc(-c2ccccc2)c2ccccc21)NCc1ccccc1Cl 8.86%
Cc1ccc(N2CCN(C(=O)c3cn(C)c4ccc(S(=O)(=O)N(C)C)cc4c3=O)CC2C)cc1 (configuration not stated) -12%
CC(C)(Oc1ccc(Br)cc1)C(=O)Nc1cc(-c2nc3ccccc3[nH]2)ccc1Cl -3.55%
O=C(CN1N=C(c2ccc(Cl)cc2)CCC1=O)NCCc1ccccc1 -10.3%
Cc1ccc(NC(=O)Cn2nc(Cc3ccncc3)c3ccccc3c2=O)c(Cl)c1 -9.12%
CNCc1ccccc1 8.67%
COc1ccccc1CNC(=O)CN1N=C(c2ccccc2)CCC1=O -5.19%
CCOc1ccc(NC(=O)c2oc3ccccc3c2NC(=O)c2ccc(OC)cc2OC)cc1 -5.25%
COc1ccc(CNC(=O)CS(=O)Cc2nc(-c3cccc(C)c3)oc2C)cc1 (configuration not stated) -8.25%
Fc1ccccc1N1CCN(c2nccn3nc(-c4ccc(Br)cc4)cc23)CC1 -14.3%
Cc1ccc(S(=O)(=O)NCC2CCC(C(=O)NCCCOC(C)C)CC2)cc1 (configuration not stated) -12.6%
CCCCN(CC)CCNC(=O)c1cc2c(=O)n(CC)c3ccccc3c2s1 -2.11%
CCCCNc1nc2ccccc2c2nc(-c3ccccc3)nn12 0.03%
Cc1nc(SCCOc2ccccc2F)[nH]c(=O)c1Cc1ccccc1 -4.83%
Cc1ccccc1NC(=O)c1oc2c(c1C)-c1nn(Cc3cccc(Cl)c3)cc1CC2 -13.4%
CC1(C)Cc2c(c(N3CCOCC3)nc3sc(C(=O)Nc4ccc(Cl)cc4)c(N)c23)CO1 -5.11%
Cc1cccc(NC(=O)CSc2nc(-c3cccc(C)c3)nc3c2Cc2c(CO)cnc(C)c2O3)c1 -11.4%
CCc1nc2ccc(C(=O)NCc3ccc(OC)c(OC)c3)cc2nc1CC 0.88%
Cc1ccc2c(CC(=O)Nc3cccc(C(F)(F)F)c3)coc2c1 -26.9%
Cc1ccc2c(c1)-c1onc(C(=O)N(C)c3cccc(C(F)(F)F)c3)c1CO2 -17.7%
Cc1ccccc1CNC(=O)Cn1c(C)c2cnn(-c3ccccc3)c(=O)c2c1C -19.7%
CCOC(=O)c1sc(N2C(=O)c3oc4ccccc4c(=O)c3C2c2ccc(C(C)(C)C)cc2)nc1C (configuration not stated) -17.9% [at 11.5 µM]
CCCCOc1ccc(C(=O)Nc2cc(-c3ccc(C)cc3)no2)cc1 0.989%
